Measurements taken from the supplement of paper PMC11876631.
Where a chain is given by its changes, count along the chain named. Names and notes keep the numbering of the source. ± gives the standard deviation of the averaged measurements. Laboratory Escherichia coli strains with one amino-acid change in an essential protein, pooled on minimal glucose agar with carbenicillin or gentamicin at twice the control MIC (plus kanamycin and chloramphenicol for the plasmids), 48 h. Fold change of barcode share against drug-free plates; higher = less susceptible. Active = above 20 in both replicates (the paper's putatively resistant). '<' = one read or none on drug, '>' = one read or none on a drug-free plate. Shares are relative, so most strains fall below 1 when a few take over. Listed are strains with at least 15 reads on both drug-free plates, and hits; most hits rest on fewer reference reads. Replicate rank correlation about 0.5. Edits are read from barcodes.

B1: proB V46A (protein)
chain: MSDSQTLVVKLGTSVLTGGSRRLNRAHIVELVRQCAQLHAAGHRIAIVTSGAIAAGREHLGYPELPATIASKQLLAAVGQSRLIQLWEQLFSIYGIHVGQMLLTRADMEDRERFLNARDTLRALLDNNIVPVINENDAVATAEIKVGDNDNLSALAAILAGADKLLLLTDQKGLYTADPRSNPQAELIKDVYGIDDALRAIAGDSVSGLGTGGMSTKLQAADVACRAGIDTIIAAGSKPGVIGDVMEGISVGTLFHAQATPLENRKRWIFGAPPAGEITVDEGATAAILERGSSLLPKGIKSVTGNFSRGEVIRICNLEGRDIAHGVSRYNSDALRRIAGHHSQEIDAILGYEYGPVAVHRDDMITR
B2: proB V130Q (protein)
chain: B1 chain with A46V, V130Q
B3: proB V130A (protein)
chain: B1 chain with A46V, V130A
B4: proB F255W (protein)
chain: B1 chain with A46V, F255W
B5: proB F255A (protein)
chain: B1 chain with A46V, F255A
B6: proB I47A (protein)
chain: B1 chain with A46V, I47A
B7: proB I47W (protein)
chain: B1 chain with A46V, I47W
B8: psd V68A (protein)
chain: MLNSFKLSLQYILPKLWLTRLAGWGASKRAGWLTKLVIDLFVKYYKVDMKEAQKPDTASYRTFNEFFARPLRDEVRPIDTDPNVLVMPADGVISQLGKIEEDKILQAKGHNYSLEALLAGNYLMADLFRNGTFVTTYLSPRDYHRVHMPCNGILREMIYVPGDLFSVNHLTAQNVPNLFARNERVICLFDTEFGPMAQILVGATIVGSIETVWAGTITPPREGIIKRWTWPAGENDGSVALLKGQEMGRFKLGSTVINLFAPGKVNLVEQLESLSVTKIGQPLAVSTETFVTPDAEPAPLPAEEIEAEHDASPLVDDKKDQV
B9: psd V68W (protein)
chain: B8 chain with A68W
B10: psd V68P (protein)
chain: B8 chain with A68P
B11: psd V68D (protein)
chain: B8 chain with A68D
B12: psd V68Q (protein)
chain: B8 chain with A68Q
B13: psd L71A (protein)
chain: B8 chain with A68V, L71A

Target: Escherichia coli (laboratory strain)
Test: barcode share on antibiotic plates over drug-free plates; higher = less susceptible
Description: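 A pool of E. coli strains, each edited to carry one amino-acid change in an essential protein, was grown for 48 h on minimal glucose agar with or without antibiotic; strain barcodes were sequenced; mean of two replicates.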

[1] = antibiotic: carbenicillin, 2× MIC (3.1 µg/mL)
[2] = antibiotic: gentamicin, 2× MIC (MIC 0.45 µg/mL)

Protein | fold change of barcode share [1] | fold change of barcode share [2]
B1 | 0.722 ± 0.44 | < 0.00357
B2 | 0.427 ± 0.38 | 
B3 | 0.51 ± 0.015 | < 0.0181
B4 | 0.48 ± 0.11 | < 0.00806
B5 | 0.444 ± 0.16 | < 0.0119
B6 | 1.47 ± 1.2 | 0.0277 ± 0.011
B7 | 1.99 ± 0.084 | 0.00419 ± 0.0024
B8 | 0.307 ± 0.13 | < 0.00864
B9 | 0.272 ± 0.086 | 0.0267 ± 0.013
B10 | 0.504 ± 0.034 | < 0.00621
B11 | 0.214 ± 0.14 | < 0.0132
B12 | 0.159 ± 0.041 | < 0.0089
B13 | 0.335 ± 0.065 | 0.00348 ± 0.0012
